Source: PMC6919601, “Identification of Plasmodium dipeptidyl aminopeptidase allosteric inhibitors by high throughput screening” (PLoS ONE, 2019)
Hit rate of the full screen: of about 110,000 compounds, about 230 (0.21%) showed an effect of 50% or more. Some of the results follow.

What follows are compounds tested against DPAP1 (Plasmodium falciparum, UniProt Q8IIJ9) (assay: primary screen, percent inhibition; read by cleavage of a fluorogenic dipeptide substrate; higher = more effect of the substance).
DPAP1, sequence (Q8IIJ9 whole entry, looked up): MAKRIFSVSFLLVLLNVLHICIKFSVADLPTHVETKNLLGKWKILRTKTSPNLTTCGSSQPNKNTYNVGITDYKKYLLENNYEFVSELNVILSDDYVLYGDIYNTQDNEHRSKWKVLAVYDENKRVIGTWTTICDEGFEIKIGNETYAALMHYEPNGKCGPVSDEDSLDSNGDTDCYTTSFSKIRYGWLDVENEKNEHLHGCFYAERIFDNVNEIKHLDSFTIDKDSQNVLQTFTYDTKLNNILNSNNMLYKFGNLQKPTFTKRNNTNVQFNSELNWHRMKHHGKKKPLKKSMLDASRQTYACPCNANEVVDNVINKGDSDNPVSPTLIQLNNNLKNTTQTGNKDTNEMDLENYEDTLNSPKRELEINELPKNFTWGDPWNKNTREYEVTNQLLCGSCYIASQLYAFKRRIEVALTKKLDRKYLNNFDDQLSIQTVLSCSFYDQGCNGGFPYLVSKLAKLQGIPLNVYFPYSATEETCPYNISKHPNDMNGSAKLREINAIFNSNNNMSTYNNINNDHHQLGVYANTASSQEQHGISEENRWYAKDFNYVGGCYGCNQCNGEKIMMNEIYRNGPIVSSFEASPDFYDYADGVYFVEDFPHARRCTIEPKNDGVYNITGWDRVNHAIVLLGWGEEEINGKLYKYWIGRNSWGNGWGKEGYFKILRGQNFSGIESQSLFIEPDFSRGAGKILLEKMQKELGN
Parameters: species or system P. falciparum D10 trophozoite lysates; single well
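Further: 30 min substrate incubation versus DMSO and 10 µM JCP410 controls.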

Row | SMILES | % Inhibition @ 10 uM [%]
1 | Cc1ccc2c(CNCCc3cccs3)c(C(=O)O)n(Cc3ccccc3F)c2c1 | 0.158
2 | Cc1nn(CCCC(=O)NCc2ccccn2)c(=O)c2cc3sccc3n12 | 4.95
3 | CCOC(=O)c1nnn(-c2nonc2N)c1-c1ccc2c(c1)OCO2 | 3.25
4 | CCN(Cc1ccncc1)C(=O)Cc1ccccc1 | 1.87
5 | C=CCn1c(-c2ccccc2)cs/c1=N\c1ccccc1 | 1.72
6 | CN(CC(=O)NC1CCCc2ccccc21)S(=O)(=O)c1cc(Br)cnc1N (stereo not drawn) | 4.86
7 | C=Cc1ccc(Cn2c(C(=O)O)c(CNCCC3=CCCCC3)c3ccccc32)cc1 | 8.05
8 | Cc1cccc(C(=O)Nc2c3c(nn2-c2ccccc2C)CS(=O)(=O)C3)c1 | 11.1
9 | O=C(NCc1cn2ccsc2n1)c1cccs1 | -2.45
10 | COc1ccc(CCNCc2ccc(C(F)(F)F)cc2)cc1 | 1.84
11 | Cc1[nH]c2ccccc2c1CN1CCCCCC1 | 0.501
12 | NC(=O)c1sc2nc(C3CC3)cc(-c3ccc(Cl)cc3)c2c1N | -4.5
13 | COC(=O)c1cnn(-c2ccccc2)c1-n1cccc1C=O | 3.04
14 | Cc1nn(C(=O)C2CCCN2S(=O)(=O)c2ccc(Cl)cc2)c(C)c1Sc1ccccc1 (stereo not drawn) | 2.03
15 | COc1ccc(C2C(C#N)=C(N)Oc3c2c(O)nc2ccccc32)cc1OC (stereo not drawn) | -1.1
16 | COc1ccc(NCN2C(=O)C3C4C=CC(C4)C3C2=O)cc1 (stereo not drawn) | -0.996
17 | Cc1c(CCC(=O)O)c(=O)oc2cc3occ(-c4ccc(F)cc4)c3cc12 | -2.92
18 | COc1ccc(-c2ccc3c(N)c(C(=O)Nc4ccc5c(c4)OCO5)sc3n2)cc1OC | -3.41
19 | Oc1ccc(CN2CCOCC2)nc1CCc1ccccc1 | 2.94
20 | COCCN1C(=O)c2ccccc2C(C(=O)NCCN(C)C2CCCCC2)C1c1cccs1 (stereo not drawn) | -4.68
21 | CC1C(=O)CCN(Cc2ccccc2)C1C (stereo not drawn) | 1.03
22 | CCc1ccc(SC(CC(=O)c2ccccc2)c2cccc([N+](=O)[O-])c2)s1 (stereo not drawn) | -3.38
23 | CCCC(=O)NCCc1nc2ccccc2n1CC(C)C | 0.121
24 | CC(=O)c1cccc(NC(=O)CCC(=O)Nc2cccc(C(C)=O)c2)c1 | 0.313
25 | OCC1CCCCN1Cc1c(F)cccc1F (stereo not drawn) | 1.9
26 | O=C1c2ccccc2C(=O)N1c1cc(Cl)ccc1O | -1.95

Row | SMILES | % Inhibition @ 10 uM [%]
27 | CN(C)CCCNC(=O)COc1ccc(-c2nn(C)c(=O)c3ccccc23)cc1 | -1.65
28 | COc1ccc(OC)c(NC(=O)CN(c2cccc(F)c2)S(C)(=O)=O)c1 | -6.83
29 | N#CC1=C(N)OC2=C(C(=O)CCC2)C1c1cccs1 (stereo not drawn) | -6.82
30 | O=C(O)CNC(=O)/C=C/c1cccs1 | 0.718
31 | CCOC(c1ccc(Cl)cc1)P(=O)(OCC)OCC (stereo not drawn) | 1.54
32 | Cc1cc(C)nc(/N=C(\N)Nc2cccc(N)c2)n1 | -2.58
33 | CC12CN3CC(C)(CN(C1)C3c1cccs1)C2O (stereo not drawn) | 4.03
34 | COc1ccc(Cl)cc1NC(=O)c1cccs1 | -2.6
35 | Oc1ccc(Cc2cnc(O)nc2O)cc1 | -1.22
36 | N#CCCS(=O)(=O)c1cccc2c(S(=O)(=O)CCC#N)cccc12 | 3.01
37 | CCCCN(CCCC)CC(=O)Nc1c2c(nc3ccccc13)N(C)CC2 | 1.9
38 | CN1CCN(c2ccc(Nc3c4ccccc4nc4ccccc34)cc2)CC1 | 25.4
39 | COc1ccccc1C(=O)Nc1nc2n(n1)C(c1ccccc1)C=C(c1ccc(Cl)cc1)N2 (stereo not drawn) | -0.386
40 | Brc1ccc(-c2cn3c4ccccc4nc3n2CCN2CCOCC2)cc1 | -3.27
41 | CCc1c(C)nc2nnc(-c3ccccc3OC)n2c1O | -0.597
42 | Cc1cccc(-n2c(C)cn3c4c(=O)n(C)c(=O)n(C)c4nc23)c1 | -2.67
43 | Cc1ccc(N2CCN(CC(=O)Nc3ccc(Br)cc3)CC2)c(C)c1 | 0.755
44 | CCOc1ccc(N(C(C)C(=O)Nc2ccccc2Cl)S(C)(=O)=O)cc1 (stereo not drawn) | -2.28
45 | COc1ccc2[nH]cc(CCNC(=O)c3ccc([N+](=O)[O-])cc3)c2c1 | 3.16
46 | O=C1OC(OC(=O)c2ccco2)C(Cl)=C1Cl (stereo not drawn) | 1.84
47 | O=C(O)C1CCCCC1C(=O)Nc1ccc(N2CCN(CCO)CC2)cc1 (stereo not drawn) | -2.99
48 | COC(=O)C1=C(C)N=C(C)/C(=C(/O)OC)C1c1ccc(Cl)c(Cl)c1 (stereo not drawn) | -1.03
49 | Cc1cc(C)nc(NS(=O)(=O)c2ccc(NC(=O)C(C)Oc3ccccc3F)cc2)n1 (stereo not drawn) | -1.52
50 | CCN(Cc1ccccc1)C(=O)c1c(C)nn(-c2ccccc2)c1-n1cccc1 | -3.35
51 | CCN(CC)CCNC(=O)Cn1c(C(F)(F)F)nc2ccccc21 | -1.73
52 | O=C(O)c1cccc(NS(=O)(=O)c2cccc(S(=O)(=O)c3ccc(Cl)c(Cl)c3)c2)c1 | 11.7

Row | SMILES | % Inhibition @ 10 uM [%]
53 | CC(C)Oc1ccc(CNC2CCOC(C)(C)C2)cc1 (stereo not drawn) | -7.94
54 | CC(C)C(NC(=O)OCc1ccccc1)C(=O)NC1CCCCC1 (stereo not drawn) | 0.843
55 | Cc1c(C(=O)NCCC2=CCCCC2)sc2ncn(CC(=O)N3CC(C)CC(C)C3)c(=O)c12 (stereo not drawn) | -5.76
56 | COC(=O)c1ccc(NC(=O)c2ccco2)cc1 | -0.0404
57 | CC(Oc1cccc(Cl)c1)C(=O)N1CCN(C/C=C/c2ccccc2)CC1 (stereo not drawn) | 1.59
58 | COc1ccc(/C=N/n2cnnc2)cc1O | 4.41
59 | O=c1oc2ccc3ccccc3c2cc1-c1nc2ccccc2o1 | 4.12
60 | COc1ccc(CCNC(=O)CCCn2sc3ccccc3c2=O)cc1OC | -4.68
61 | COc1ccccc1C1Oc2ccc(Cl)cc2C2=C1C(c1cccs1)n1ncnc1N2 (stereo not drawn) | -1.62
62 | COc1ccc(C(=O)NCc2cccnc2)cc1OC | -1.57
63 | CCN(CC)C(=O)C1CCCN(Cc2ccc(F)c(Br)c2)C1 (stereo not drawn) | -5.57
64 | Cc1ccc(C2=[N+]([O-])C(C)(C)C(c3ccc(C)cc3)=[N+]([O-])C2(C)C)cc1 | 1.63
65 | CCc1ccc(C2CC(c3ccc(Cl)cc3)Nc3nnnn32)cc1 (stereo not drawn) | 4.86
66 | CSc1ncc(Nc2nc(C)cs2)cn1 | 1
67 | CSc1nn(-c2nc3c(C)cccc3s2)c(N)c1C#N | -0.99
68 | CN(C)CCOC(c1ccc(F)cc1)c1ccc(F)cc1 | 3.05
69 | CCOC(=O)c1c(C)c(-c2ccccc2)n(CC(=O)Nc2nccs2)c1C | 3.32
70 | CCOc1cc(C2C(C#N)=C(N)Oc3[nH]nc(-c4ccc(C)cc4)c32)ccc1O (stereo not drawn) | -2.78
71 | c1ccc(N2CCN(c3nn4nnnc4c4ccccc34)CC2)nc1 | -0.704
72 | c1ccc(-c2nc3cccnc3nc2N2CCCCC2)cc1 | 5.32
73 | CSc1ccc(C2C(C#N)=C(N)Oc3c2c(O)nc2ccccc32)cc1 (stereo not drawn) | 1.26
74 | Cc1c(NC(=O)/C(O)=C/C(=O)c2ccccc2)c(=O)n(-c2ccccc2)n1C | -6.46
75 | C=CCn1c(CNC(=O)c2cccc(C)c2)nc2ccccc21 | 0.505
76 | O=S(=O)(c1cccnc1Nc1cccc(C(F)(F)F)c1)N1CCOCC1 | 1.94
77 | Cc1ccc(-c2cn3nc(C4CC4)sc3n2)cc1 | 7.04
78 | C#CCSc1nc(N)c2c3c(sc2n1)CCCC3 | 3.47

Row | SMILES | % Inhibition @ 10 uM [%]
79 | COc1ccc(Cc2nc(-c3ccc(-n4cccc4)cc3)no2)cc1OC | -5.11
80 | COc1ccc(C)c2sc(N(CCN(C)C)C(=O)Cc3ccccc3)nc12 | 4.19
81 | O=c1oc2c3c(c(Cl)cc2c2c1CCC2)OCN(Cc1ccccc1)C3 | -0.808
82 | Cc1ccc2nc3c(cc(C#N)c(=O)n3-c3nccs3)c(=O)n2c1 | 2.73
83 | CCc1ccc(Oc2nc3ccccn3c(=O)c2/C=C(\C#N)S(=O)(=O)c2ccccc2)cc1 | 3.12
84 | Cc1ccc(C)c(N2C(=O)C3CCC(C)CC3C2=O)c1 (stereo not drawn) | -0.999
85 | Cc1nn(Cc2ccc(F)cc2)c(C)c1NC(=O)COCc1cc(-c2ccc3c(c2)OCO3)on1 | 0.56
86 | O=C1NCc2ccccc2-c2ccccc21 | -1.54
87 | Cc1nc(SCC(=O)c2ccc(O)c(O)c2)c(C#N)c(-c2ccc(Br)cc2)c1C#N | 0.587
88 | CCOC(=O)c1s/c(=N\C(=O)c2cccc3ccccc23)n(C)c1C | 1.39
89 | C=CCn1c(=O)c(C(=O)NCc2ccccn2)c(O)c2ccccc21 | -0.864
90 | CC(=O)C(C)(O)c1cccnc1 (stereo not drawn) | -2.79
91 | O=C(Nc1c2c(nn1-c1ccc(F)cc1)CS(=O)(=O)C2)c1cc(Br)ccc1Cl | 9.09
92 | COC(=O)C1=C(C)N(CC2CCCO2)C(=O)/C1=C\c1ccccc1OC (stereo not drawn) | -3.4
93 | Cc1nc2ccsc2c(=O)n1-c1ccc(Cl)cc1 | 1.01
94 | Cc1cc(C)c(S(=O)(=O)N2CCC(C(=O)Nc3c(F)cccc3F)CC2)c(C)c1 | -2.28
95 | O=C(NC1CCCCC1)c1ccc(Cl)c(S(=O)(=O)N2CCCCC2)c1 | 5.56
96 | O=C(CN(c1ccccc1)S(=O)(=O)c1ccccc1)N1CCN(c2ccccc2)CC1 | -5.95
97 | O=C1CC(NCc2ccccn2)C(=O)N1c1ccc(F)cc1 (stereo not drawn) | -1.61
98 | CN1C(=O)C(CC(=O)Nc2ccccc2F)S/C1=N/c1ccccc1 (stereo not drawn) | 2.13
99 | Cc1nc2c3ccccc3nc(N3CCN(C(c4ccccc4)c4ccccc4)CC3)n2n1 | 0.775
100 | COc1ccc(OC)c(NS(=O)(=O)c2c(C)cc(C)cc2C)c1 | -3.15
101 | COC(=O)Nc1nc(O)c2cc([N+](=O)[O-])ccc2n1 | -1.91
102 | N#C/C(=C\c1c(Oc2ccccc2Cl)nc2ccccn2c1=O)C(=O)NC1CCCC1 | 4.06
